Source: PubChem BioAssay AID1240 (Sanford-Burnham Center for Chemical Genomics, 2008)
In all, about 50,000 compounds went through this assay and about 800 (1.6%) showed an effect of 50% or more. The list shows a part of the results.

What follows are compounds tested against Bcl-2-like protein 10 (Homo sapiens) (UniProt Q9HD36) (assay: Phenotype converters, Bcl-B/TR3 peptide binding displacement, primary biochemical FP (AID 1240;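 further: 0% = Bcl-B with tracer peptide and DMSO and 100% = tracer peptide lacking Bcl-B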)). Conditions: GST-Bcl-B / FITC-TR3 peptide fluorescence polarization; stronger effect = higher value; compound at 3.75 mg/L.
Chain of UniProt Q9HD36 (Q9HD36 whole entry, looked up): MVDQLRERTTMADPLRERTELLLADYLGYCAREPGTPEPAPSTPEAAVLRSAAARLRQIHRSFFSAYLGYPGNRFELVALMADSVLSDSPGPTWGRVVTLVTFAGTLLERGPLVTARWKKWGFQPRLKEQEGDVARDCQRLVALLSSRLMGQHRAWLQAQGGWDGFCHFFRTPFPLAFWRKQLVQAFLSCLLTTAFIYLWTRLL
With `N#Cc1conc1-c1ccc2c(c1)OCO2` the displacement was 27%. Compound `COc1ccc(/C=C2/C(=O)NN(c3ccccc3)C2=O)cc1Br` has a displacement of 16.4%. `O=C1CC(c2ccc3c(c2)OCO3)c2ccc3ccccc3c2N1` (stereo not drawn) showed a displacement of -0.1%. `CCCCNC(=O)c1nn2c(c1Cl)NC(c1ccccc1)CC2C(F)(F)F` (stereo not drawn) was tested, and the displacement was 11.9%. `Cc1cc(C)cc(N2C(=O)NC(=O)/C(=C\c3ccc(Br)s3)C2=O)c1` was tested, and the displacement was -0.2%. `O=c1c2ccccc2nc2n1CCS2` was tested, and the displacement was 0.4%. Work on `COc1ccc(-n2c(=S)[nH]c3sc4c(c3c2=O)CC(C)(C)SC4)cc1` yielded a displacement of -29.3%. With `NC1=NC(=O)/C(=C/c2ccc(-c3cc([N+](=O)[O-])ccc3Cl)o2)S1` the displacement was 5%. With `COc1ccc(OC)c(NC(=O)CCC2CCCCC2)c1` the displacement was -4.4%. For `CC1=C(C(=O)OC2CCCC2C)C(c2ccccc2Cl)NC(=O)N1` (stereo not drawn), the displacement was 1.8%. With `Cc1n[nH]c(C)c1Sc1ccccc1N=Cc1cc(Cl)cc([N+](=O)[O-])c1O` the displacement was 117%. `O=C(Cc1ccccc1)Nc1ccccc1C(=O)N1CCCCCC1` gave a displacement of 2.9%. In the case of `COc1ccc(OC)c(NC(=O)CN(c2ccc(OC)cc2OC)S(C)(=O)=O)c1`, the displacement is reported as 4.5%. With `CN(C)c1ccc(C(=O)N2CCN(c3ccc(F)cc3)CC2)cc1` the displacement was 4.9%. In the case of `Cc1ccccc1OCC(=O)Nc1cccc(-c2nc3ncccc3o2)c1`, the displacement is reported as 3%. `CCc1c(C#N)c(N)nc2sc(C(=O)c3cccs3)c(N)c12` showed a displacement of 4.2%. In the case of `CC(C)(CO)NC(=O)COc1ccc(Cl)cc1Cl`, the displacement is reported as 10.2%. With `O=C(Nc1ccc(-c2nc3ccccc3[nH]2)cc1)c1ccc(Br)o1` the displacement was -9%. Compound `O=C1CC(N2CCN(c3ccccn3)CC2)C(=O)N1c1cc(Cl)cc(Cl)c1` (stereo not drawn) has a displacement of 7.1%. Work on `CCN(CC)C(=O)c1sc(NC(=O)c2ccc(OC)cc2)c(C(=O)OC)c1C` yielded a displacement of -7.2%. `CCCc1cc(=O)oc2cc(OCc3ccc(Cl)cc3)ccc12` was tested, and the displacement was -5.5%. Compound `O=C(O)c1cc(NC(=O)c2ccc3c(c2)C(=O)N(CC2CCCO2)C3=O)cc(C(=O)O)c1` (stereo not drawn) has a displacement of 3.7%. For `COc1cc(/C=N\NC(=O)c2ccc(Br)cc2)ccc1OCc1ccccc1`, the displacement was 6.4%. In the case of `Cc1nc2ccccc2c2nc3ccccc3n12`, the displacement is reported as 14.9%. `COc1ccc(CCNC(=O)c2ccc(Cl)c(Cl)c2)cc1OC` was tested, and the displacement was 6%. `O=C(NCCc1ccc(Cl)cc1)C(=O)Nc1nccs1` gave a displacement of 13.8%. Compound `CCNC(=S)N(Cc1ccc(Cl)cc1)C1CC(=O)N(c2ccccc2)C1=O` (stereo not drawn) has a displacement of -10.1%. With `O=C(Nc1nnc(CSCc2ccccc2F)s1)C1CCCCC1` the displacement was -8.3%. Compound `O=C(CC(C(=O)O)C1CCCO1)NCc1ccccc1` (stereo not drawn) has a displacement of 5.2%. `Cc1ccc(C2CC(C(F)(F)F)n3ncc(C(=O)N4CCSCC4)c3N2)cc1` (stereo not drawn) was tested, and the displacement was 7.1%. In the case of `CCOC(=O)C1=CN(c2ccc(C)c(C)c2)C=C(C(=O)OCC)C1c1ccc(OC)cc1`, the displacement is reported as 2.4%. `COc1ccc(/C=C2\SC(=O)N(c3c(C)n(C)n(-c4ccccc4)c3=O)C2=O)cc1` showed a displacement of 12.6%. `COC(=O)c1cc(C(=O)Nc2cc(Cl)ccc2OC)cc([N+](=O)[O-])c1` was tested, and the displacement was 7%. With `N#CC(C#N)=C1C(=O)Nc2ccc(Br)cc21` the displacement was -12%. In the case of `N#CSCCCCCOc1ccc(I)cc1`, the displacement is reported as -1.3%. `CCC(=O)Nc1ccc(NC(=O)c2ccc(OC)cc2)cc1` was tested, and the displacement was 6.4%. Compound `COc1cccc(C(=O)NNC(=O)CCCOc2ccc(Cl)cc2Cl)c1` has a displacement of 0.7%. Work on `CC(=O)c1ccc(NC(=O)C2CC(=O)N(c3ccc(F)cc3)C2)cc1` (stereo not drawn) yielded a displacement of 13%. For `CC1=NN(c2ccc(C)c(C)c2)C(=O)/C1=C/c1ccc([N+](=O)[O-])o1`, the displacement was 12.1%. With `O=[N+]([O-])c1ccc(S(=O)(=O)Nc2ccccc2CO)cc1` the displacement was -0.6%. In the case of `Cc1cc(NC(=O)c2cc(I)ccc2Cl)ccc1NC(=O)c1ccccc1`, the displacement is reported as -0.6%. `O=C(NCCNS(=O)(=O)c1ccccc1)c1c(O)c2ccccc2oc1=O` was tested, and the displacement was 4.9%. In the case of `O=C(O)C1(P(=O)(c2ccccc2)c2ccccc2)CCC1`, the displacement is reported as 0%. `N/C(=N\OC(=O)/C=C/c1ccccc1)c1cccnc1` gave a displacement of -11.5%. Work on `CCCN1C(=O)c2ccccc2NC1c1ccc(C)cc1` (stereo not drawn) yielded a displacement of 14.7%. Compound `COc1ccc(OC)c(/C=C2\C(=O)NC(=O)N(c3ccccc3)C2=O)c1` has a displacement of -1.7%. In the case of `O=C1NC(=O)N(c2cccc(Br)c2)C(=O)/C1=C/c1ccccc1Cl`, the displacement is reported as 1.5%. `Cc1ccc(OCCn2c(SCC(N)=O)nc3ccccc32)cc1` showed a displacement of -6.4%. `CCc1ccccc1NC(=O)C(C#N)=C1CCCCCC1` was tested, and the displacement was 1.1%. `CCOC(=O)C1=C(C)N=c2s/c(=C\c3ccc(NC(C)=O)cc3)c(=O)n2C1c1ccc(OC)c(OC)c1` (stereo not drawn) was tested, and the displacement was 88.9%. Work on `O=C(NCCO)/C(=C\c1cccc(Br)c1)NC(=O)c1ccccc1` yielded a displacement of -1%. `COc1ccc(C(=O)Oc2ccc([N+](=O)[O-])cc2)cc1S(=O)(=O)N1CCOCC1` showed a displacement of -8.4%. In the case of `CCCN(/C=N/S(=O)(=O)c1ccc(Cl)cc1)CCC`, the displacement is reported as 8%. Work on `O=C(CSc1nnc(-c2cccs2)n1-c1ccccc1)c1ccccc1` yielded a displacement of 1.2%. `COC(=O)c1cc(NC(=O)C(C)(C)C)cc(C(=O)OC)c1` was tested, and the displacement was 4.4%. Compound `COc1ccc(C2=C/C(=C\c3ccc(OC(C)=O)c(OC)c3)C(=O)O2)cc1` has a displacement of 39.4%. Work on `COc1ccc(OC)c(NC(=O)CN(Cc2ccccc2)S(=O)(=O)c2ccccc2)c1` yielded a displacement of 21.7%. With `CC1=C(C(=O)Nc2ccc(C)cc2)C(c2ccccc2F)NC(=O)N1` (stereo not drawn) the displacement was -5.3%. `Nc1ncn(-c2ccc(Cl)cc2)c1C(=O)c1ccc([N+](=O)[O-])cc1` gave a displacement of -8.3%. `CCc1ccc(C2NC(=O)c3c(sc4c3CCCC4)N2)cc1` (stereo not drawn) was tested, and the displacement was -13.8%. For `COc1ccc(NC(=O)C2CC2)c(OC)c1`, the displacement was 1%. With `CC(=O)N1CCc2ccccc2C1CN1C(=O)c2ccccc2C1=O` (stereo not drawn) the displacement was -0.4%. `COc1ccc(C(=O)N2CCN(Cc3cccc(OC)c3OC)CC2)cc1` showed a displacement of -7.2%. For `O=C1C=C(Nc2ccccc2)C(=O)N1c1ccccc1Cl`, the displacement was 12.8%. Compound `CCn1c(SCC(=O)c2ccccc2)nc2ccccc2c1=O` has a displacement of -8%. Work on `Cc1c(C(=O)OC(C)C)sc(NC(=O)C(C)(C)C)c1C(=O)OC(C)C` yielded a displacement of -7.9%. `CC(C)(C)c1cc(CCC(=O)NN2C(=O)CSC2=S)cc(C(C)(C)C)c1O` was tested, and the displacement was -8.5%. For `O=C(Nc1ccccc1C(=O)N1CCOCC1)c1ccco1`, the displacement was 7.7%. For `CCn1c(C)[n+](CCO)c2cc(Cl)c(Cl)cc21`, the displacement was 21.4%. `O=C(Nc1cc(Oc2ccccc2)cc([N+](=O)[O-])c1)c1ccco1` gave a displacement of -8.4%. `O=C1NC(=O)C(=Cc2ccc(OS(=O)(=O)c3ccc([N+](=O)[O-])cc3)cc2)C(=O)N1` gave a displacement of -4.5%. Work on `Cn1c2c(c(=O)n(C)c1=O)C(c1ccc(OCc3ccccc3)cc1)C1=C(N2)c2ccccc2C1=O` (stereo not drawn) yielded a displacement of -1.7%. Compound `CC(C)=C1C2C=CC1C1C(=O)NC(=O)C21` (stereo not drawn) has a displacement of 6.9%. `O=C(CSc1ncccn1)Nc1ccc(Cl)cc1` was tested, and the displacement was -5.6%. Work on `O=C1CC(NCc2ccc3c(c2)OCO3)C(=O)N1c1ccc(Br)cc1` (stereo not drawn) yielded a displacement of 1%. `COC(=O)c1[nH]cnc1C(=O)Nc1ccc(C)cc1C(=O)c1ccccc1` showed a displacement of -1.6%. Work on `O=C1C=CC(=NS(=O)(=O)c2ccc3ccccc3c2)C=C1` yielded a displacement of -14.7%. For `COc1cccc(C(=O)NNC(N)=O)c1`, the displacement was -7.4%. `COc1cc(OC)cc(C(=O)Nc2ccc3oc(-c4ccc(I)cc4)nc3c2)c1` showed a displacement of -5.8%. With `COc1ccccc1/C=N/N=C1/NC(=O)C(Cc2ccc(Cl)cc2Cl)S1` (stereo not drawn) the displacement was 9.8%. `COc1ccc(OC)c(NC(=S)NC(NC(=O)c2ccccc2Br)C(Cl)(Cl)Cl)c1` (stereo not drawn) was tested, and the displacement was -3.2%. In the case of `O=C1NN(c2ccccc2)C(=O)/C1=C/c1ccc(F)cc1`, the displacement is reported as -8%. For `COC(=O)C1=C(C)N(C)C(C)=C(C(=O)OC)C1c1ccc(SC)cc1`, the displacement was -5.8%. In the case of `Fc1ccc(OCCOc2ncnc3ccccc23)cc1`, the displacement is reported as -6%. Compound `O=C(CSc1nnc(-c2ccco2)n1-c1ccccc1)Nc1cccc([N+](=O)[O-])c1` has a displacement of -18.5%. In the case of `COc1ccc2c(=O)cc(C(F)(F)C(F)F)oc2c1`, the displacement is reported as 11.9%. Work on `CCCCNc1c([N+](=O)[O-])c(=O)n(C)c2ccccc12` yielded a displacement of 2.9%. With `Cc1ccc(N2C(=O)CC(N(C)Cc3ccccc3)C2=O)c(C)c1` (stereo not drawn) the displacement was 0.2%. `CN=C(Nc1cccc(Cl)c1)SC1CC(=O)N(c2ccccc2F)C1=O` (stereo not drawn) showed a displacement of -10.1%. `O=[N+]([O-])c1ccc(N2CCN(S(=O)(=O)c3ccc(Cl)cc3)CC2)cc1NCc1ccccc1` gave a displacement of 5.7%. `CCOc1ccc(/C=C2\SC(=S)N(CCC(=O)Nc3ccccn3)C2=O)cc1` showed a displacement of -4.3%. With `COc1ccc(C(NC(=O)CC(C)C)NC(=O)CC(C)C)cc1OC` the displacement was -1.1%. For `Cc1ccccc1C(=O)Nc1cccc(NC(=O)c2ccc([N+](=O)[O-])o2)c1`, the displacement was 13.1%. `O=C(Nc1ccc(Cc2ccncc2)cc1)Nc1cc(F)c(F)cc1Cl` gave a displacement of -4.2%. `CCOc1ccccc1N/C=C(/C#N)c1nc(-c2ccc(OC)c(OC)c2)cs1` showed a displacement of -7.4%. For `CCOc1ccc(N/C=C\C(=O)c2ccc3c(c2)OCO3)c([N+](=O)[O-])c1`, the displacement was 12%. For `COc1cc(C=C2C(=O)NC(=O)NC2=O)ccc1OCCOc1ccc(C)cc1`, the displacement was 32.2%. `COc1ccc(NC(=O)C2(c3ccccc3)CC2(Cl)Cl)cc1` (stereo not drawn) showed a displacement of 8.1%. Work on `CCOc1cc(Br)cc(/C=C2/SC(=S)N(c3ccccc3)C2=O)c1O` yielded a displacement of -35.5%. `O=C(NCC1(c2ccccc2)CCOCC1)c1cccc(Br)c1` was tested, and the displacement was -2.8%. In the case of `Cc1cc([N+](=O)[O-])ccc1-c1ccc(C(=O)Nc2ccc(-c3nc4ccccc4o3)c(O)c2)o1`, the displacement is reported as 10.8%. Work on `COc1ccc(-c2nnc(NC(=O)c3cccs3)s2)cc1` yielded a displacement of 8.7%. `COc1ccc(S(=O)(=O)NCC(C)C)cc1Br` showed a displacement of 6.2%. Work on `Cc1[nH]n(-c2ccc(Cl)c(C(=O)O)c2)c(=O)c1/C=C1\C=c2ccccc2=NC1=O` yielded a displacement of 15%. Work on `COc1ccc(C(=O)N2CCN(S(C)(=O)=O)CC2)cc1OC` yielded a displacement of -4.9%. `COc1cc(/C=C2/SC(=S)N(CCC(=O)O)C2=O)cc(Br)c1O` gave a displacement of -13.7%. With `Cc1ccc(-n2c(C)cc(/C=C3\NC(=O)NC3=O)c2C)cc1C` the displacement was 11.1%. `CC1=C(C(=O)Nc2ccccc2)C(c2ccc(C)o2)N2C(=O)CSC2=N1` (stereo not drawn) was tested, and the displacement was -40.8%.
